In all, about 33,000 sequences were measured (“E-score (-0.5 to 0.5)”: median about -0.056, highest 2% from about 0.38 on). Some of the results follow.
target: Stb4 (UniProt P50104); test: PBM E-score (8-mer binding enrichment) (E-score (-0.5 to 0.5)); higher = stronger / more preferred TF binding; most listed sequences are background and not binding sites; conditions: protein concentration: 200 nM; construct: GST-DNA-binding domain
Outline: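 Using PURExpress in vitro transcription/translation, GST-tagged yeast transcription factors were made in full-length or DNA-binding-domain form. These were applied at about 100-200 nM to double-stranded universal all-10-mer Agilent arrays, and bound protein was detected with fluorescent anti-GST. Scans were normalised with masliner before the Universal PBM Analysis Suite assigned E-scores to ungapped eight-base words pooled with their reverse complements.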

| Sequence | PBM E-score |
| --- | --- |
| CGCTATTA | -0.0567 |
| AGGTATCG | 0.165 |
| CTGGGGTC | -0.16 |
| AGTGGACG | -0.0495 |
| ACTATTTG | -0.051 |
| GACCCCGC | -0.0145 |
| AACCTGTA | -0.212 |
| CTTGGCTA | -0.295 |
| CCACCCTC | 0.0269 |
| CCCAGGAA | -0.296 |
| GAAGACGA | -0.119 |
| ACGTTGCA | 0.0136 |
| ATTCGAAT | -0.219 |
| ATGCCGAA | 0.433 |
| AGCAATTA | -0.0712 |
| AATGACTG | -0.156 |
| AACTGAGG | -0.108 |
| GGTGAACA | -0.237 |
| ACGCAATC | 0.0277 |
| ACGTTCCA | -0.0774 |
| AACTAGGT | 0.144 |
| CCTGGACG | -0.162 |

| Sequence | PBM E-score |
| --- | --- |
| AAATCTCT | -0.0193 |
| GTAACTAC | 0.0955 |
| CGGAGGCA | 0.191 |
| CGACAGAC | -0.0991 |
| AGGTACAA | -0.158 |
| CGAAGCCA | -0.0994 |
| ATTCCGAC | 0.416 |
| AACCACAA | -0.016 |
| GCGCCTTA | -0.14 |
| GAGGGATA | -0.0002 |
| CTAACCCC | -0.0772 |
| GGATCTAA | 0.16 |
| CGCTTACG | -0.0795 |
| ATTACGTG | -0.0426 |
| ACACTCCA | -0.17 |
| CTATCAGC | -0.166 |
| CCATTGAA | -0.153 |
| GGATCGTA | 0.218 |
| GTCGGCTA | 0.377 |
| AGTATCAT | 0.0471 |
| AGTCTTTA | -0.232 |
| ATAGATAG | -0.175 |

| Sequence | PBM E-score |
| --- | --- |
| ACGCACAT | -0.158 |
| TACGGGCA | 0.00388 |
| CTCGCGAC | -0.131 |
| CCAAGACA | -0.127 |
| CTTGACTA | -0.0726 |
| AGCTGGAA | -0.246 |
| CCGAAACA | 0.364 |
| ACACGTCA | -0.0839 |
| ATTCCTCA | -0.178 |
| AGGCGTGG | -0.158 |
| AACCAGTC | 0.117 |
| CCAAGCAG | -0.0901 |
| AACTAGCG | 0.0384 |
| AATCTGTG | -0.0797 |
| AGACGGCG | -0.137 |
| CTCATGAC | -0.0701 |
| AGTCGGAG | 0.226 |
| GGCACGTA | 0.0438 |
| GCAACGGC | 0.129 |
| ATACGGGG | -0.0189 |
| CTTTCGAC | -0.172 |
| AAACTGGC | -0.137 |

| Sequence | PBM E-score |
| --- | --- |
| ATCAGAAC | -0.0273 |
| AGGGGGTA | -0.35 |
| AGCTGGCA | -0.097 |
| CCTTGCGA | -0.172 |
| ACACATTA | -0.107 |
| ACGCATAA | -0.153 |
| GGCCCTCA | -0.237 |
| AGCCCTGG | -0.141 |
| GCCACTAC | -0.0487 |
| ACAAAGCT | -0.122 |
| AATAGTAG | -0.0971 |
| GTTTGATA | -0.0156 |
| CGCAATTA | 0.142 |
| AAAGTACG | 0.0208 |
| GTCATACA | -0.208 |
| ATTATACC | 0.143 |
| TAGCCAAA | 0.0424 |
| ATATTGCA | -0.0447 |
| CTCTAGTC | -0.0877 |
| TGACCCAA | -0.235 |
| AGTGCATG | -0.22 |
| ATATCGCC | 0.0778 |

| Sequence | PBM E-score |
| --- | --- |
| GCCTTCAA | -0.13 |
| ACTTTCAC | -0.0388 |
| CAACCGTC | 0.0656 |
| AACACACT | -0.191 |
| CCTAGCGC | -0.139 |
| GAACGCGC | 0.175 |
| AGAGTGGA | -0.2 |
| GCGACGAC | -0.0957 |
| GCCGTTCA | 0.0188 |
| GAGACCTA | -0.0943 |
| CCATAGAG | -0.0878 |
| ACCACAAT | 0.0164 |
| GCGGATCC | 0.301 |
| CCACAAGG | -0.016 |
| AATTCATG | 0.0647 |
| CCACTAGC | -0.22 |
| CAATGCCC | 0.0552 |
| CACCGATC | 0.135 |
| AGGTGAAA | -0.0871 |
| ACTCACAA | -0.129 |
| CAAGACAG | -0.15 |
| CAGCAATG | -0.394 |
